Test results taken from US12371459B2, “Antimicrobial peptide derived from Pseudin-2 peptide and uses thereof” (INDUSTRY-ACADEMIC COOPERATION FOUNDATION, CHOSUN UNIVERSITY, priority 2019, dated 2025).
Values joined by “and” are separate entries in the source; they are usually repeats but may differ in a detail not shown here. Equal values may be shown once. Read-outs that look alike come from different tables or passages of the source.

Legend:
[1] = tested on: erythrocytes of a mouse (Balb/c); assay: Erythrocyte hemolytic activity; conditions: 1 hour at 37° C.
Method: To compare the cytotoxicity among the peptides that are produced by the method of Example 1, erythrocyte hemolytic activity of the synthesized peptide was measured.
After that, the amount of hemoglobin contained in a supernatant collected by centrifuge at 1,000×g was determined by measuring the absorbance at a wavelength of 414 nm. As a control to be used as a reference for cell disruption level, the supernatant collected by a treatment with 1% Triton X-100 (Sigma, USA) and a reaction for 1 hour at 37° C. was used to measure the absorbance. By setting the resulting absorbance value at 100% of the erythrocyte hemolytic activity, hemolysis of each peptide was calculated using the following equation 1. Erythrocyte disrupting ability (%)=(Absorbance A−Absorbance B)/(Absorbance C−Absorbance B)×100 Equation 1 (in the above equation, Absorbance A indicates the absorbance of a reaction solution treated with each peptide, in which the absorbance is measured at a wavelength of 414 nm; Absorbance B indicates the absorbance of a reaction solution treated with PBS, in which the absorbance is measured at a wavelength of 414 nm; and Absorbance C indicates the absorbance of a reaction solution treated with 1% Triton X-100, in which the absorbance is measured at a wavelength of 414 nm).

[2] = Cytotoxicity in normal cell line (MTT); conditions: human, HaCaT keratinocyte cells
Method: To determine the cytotoxicity of the peptides produced by the method of Example 1 in normal cell line, cytotoxicity was measured by using human keratinocyte cell line (HaCaT cell line, Dr. N E. Fusenig, Heidelberg, Germany).
Specifically, HaCaT cells, which have been cultured in DMEM medium containing 10% FBS (fetal bovine serum), were aliquoted in a microtiter plate to have 2×10^5 cells per well. […] Twenty-four hours later, a reaction solution containing 0.5 mg/ml MTT (thiazolyl blue tetrazolium bromide) dissolved in phosphate buffered saline (PBS) was added in an amount of 100 μl to each well and the reaction was allowed to occur for 4 hours. After that, the supernatant was discarded, and, by dissolving MTT crystals that are formed by adding 200 μl DMSO (dimethyl sulfoxide), the absorbance at 560 nm was measured to determine the cell survival ability.

plasmid DNA (pRSETB) = assay: Binding between antimicrobial peptide and DNA (agarose gel electrophoresis); conditions: plasmid DNA 300 ng, peptide/DNA ratio 0.25:1 to 4:1, 10 minutes at 37° C.
Method: Specifically, plasmid DNA (pRSETB, 300 ng) and the peptide were reacted for at different ratio (i.e., peptide/DNA ratio was 0 (DNA only), 0.25:1, 0.5:1, 1:1, 1.5:1, 2:1, 3:1, or 4:1) for 10 minutes at 37° C. After that, electrophoresis was carried out using 1% agarose gel followed by staining with ethidium bromide (EtBr) and UV determination.

Staphylococcus aureus [3] = assay: Flow cytometry, propidium iodide, effect on bacteria membrane; assay type: cell-based; conditions: peptide at MIC; for Membrane disrupting ability compared with Pseudin-2: flow cytometry
Method: (§1) After that, the supernatant was removed by centrifuge (10,000 rpm) and stained with propidium iodide (PI, concentration of 10 μg/ml) for 30 minutes at 4° C. Thereafter, unbound propidium iodide was removed by centrifuge, and the problem of cell aggregation phenomenon was solved by adding physiological saline (PBS) in an amount of 1 ml.

Escherichia coli [4] = assay: as above; assay type: cell-based; conditions: peptide at MIC; for Membrane disrupting ability compared with Pseudin-2: flow cytometry
Method: as §1

[5] = tested on: interleukin-6 (IL-6) mRNA; conditions: skin lesion infected with P. aeruginosa 4891, treated with peptide, relative to β-actin
Staphylococcus aureus [6] = assay: Scanning electron microscopy (SEM), membrane damage; assay type: cell-based; conditions: peptide at MIC, 1 hour at 37° C.
Method: (§2) As a control, cells applied with no peptide were used. After the culture, the cells were collected, and, by using 2.5% glutaraldehyde, the bacterial cells were treated for 18 hour at 4° C. After carrying out washing two times with PBS buffer solution, the fixed cells were dehydrated in stepwise manner by using 100% ethanol and diluted ethanol (50%, 70%, 90% and 100%). After the dehydration followed by drying, the specimen was coated with platinum and determination was made by low vacuum scanning electron microscopy.

Escherichia coli [7] = assay: as above; assay type: cell-based; conditions: peptide at MIC, 1 hour at 37° C.
Method: as §2

[8] = tested on: Pseudomonas aeruginosa 4891
[9] = tested on: tumor necrosis factor-alpha (TNF-α) mRNA; conditions: skin lesion infected with P. aeruginosa 4891, treated with peptide, relative to β-actin
[10] = tested on: interleukin-1 beta (IL-1β) mRNA; conditions: skin lesion infected with P. aeruginosa 4891, treated with peptide, relative to β-actin

Structure (SMILES) | Erythrocyte disrupting ability ([1]; peptide concentration 3.13 μM) [%] | Erythrocyte disrupting ability ([1]; peptide concentration 6.25 μM) [%] | Erythrocyte disrupting ability ([1]; peptide concentration 12.5 μM) [%] | Erythrocyte disrupting ability ([1]; peptide concentration 25 μM) [%] | Erythrocyte disrupting ability ([1]; peptide concentration 50 μM) [%] | Erythrocyte disrupting ability ([1]; peptide concentration 100 μM) | viability at 24 h, 3.13 µM [2] [%] | viability at 24 h, 6.25 µM [2] [%] | viability at 24 h, 12.5 µM [2] [%] | viability at 24 h, 25 µM [2] [%] | viability at 24 h, 50 µM [2] [%] | viability at 24 h, 100 µM [2] [%] | Binding to DNA (plasmid DNA (pRSETB)) | Membrane disrupting ability compared with Pseudin-2 (Staphylococcus aureus [3]) | Membrane disrupting ability compared with Pseudin-2 (Escherichia coli [4]) | other results
CC[C@H](C)[C@H](NC(=O)[C@H](C)NC(=O)[C@H](CCC(=O)O)NC(=O)[C@H](Cc1c[nH]cn1)NC(=O)[C@@H](NC(=O)[C@H](CCCCN)NC(=O)[C@H](CCC(N)=O)NC(=O)[C@H](Cc1ccccc1)NC(=O)[C@@H](NC(=O)[C@H](CCCCN)NC(=O)[C@H](CCCCN)NC(=O)[C@H](CC(C)C)NC(=O)[C@H](C)NC(=O)[C@H](CC(N)=O)NC(=O)[C@H](CC(C)C)NC(=O)CN)C(C)C)[C@@H](C)CC)C(=O)N[C@@H](CCCCN)C(=O)N[C@@H](CC(C)C)C(=O)N[C@H](C(=O)N[C@@H](CC(N)=O)C(=O)N[C@@H](CC(N)=O)C(=O)N[C@@H](Cc1c[nH]cn1)C(=O)N[C@H](C(=O)N[C@@H](CCC(N)=O)C(N)=O)C(C)C)[C@@H](C)CC [Pse-11G-K] | 17.3 | 49.4 | 69.8 | 84.0 | 97.8 | 100% and 99.2% | 100 | 100 | 100 | 73.8 | 50.2 | 36.4 |  |  |  | 
CC[C@H](C)[C@H](NC(=O)[C@H](C)NC(=O)[C@H](CCC(=O)O)NC(=O)[C@H](Cc1c[nH]cn1)NC(=O)[C@@H](NC(=O)[C@H](CCCCN)NC(=O)[C@H](CCC(N)=O)NC(=O)[C@H](Cc1ccccc1)NC(=O)[C@@H](NC(=O)[C@H](CCCCN)NC(=O)[C@H](CCCCN)NC(=O)[C@H](CC(C)C)NC(=O)[C@H](C)NC(=O)[C@H](CC(N)=O)NC(=O)[C@H](CC(C)C)NC(=O)CN)C(C)C)[C@@H](C)CC)C(=O)N[C@@H](CCCCN)C(=O)N[C@@H](CCCCN)C(=O)N[C@H](C(=O)N[C@@H](CC(N)=O)C(=O)N[C@@H](CC(N)=O)C(=O)N[C@@H](Cc1c[nH]cn1)C(=O)N[C@H](C(=O)N[C@@H](CCC(N)=O)C(N)=O)C(C)C)[C@@H](C)CC [Pse-11G/18L-K] | 0 | 0 | 0.7 | 1.3 | 6.6 | 18.0% | 100 | 100 | 100 | 100 | 100 | 91.3 |  |  |  | 
CC[C@H](C)[C@H](NC(=O)[C@H](CCCCN)NC(=O)[C@H](CCCCN)NC(=O)[C@@H](NC(=O)[C@H](C)NC(=O)[C@H](CCC(=O)O)NC(=O)[C@H](Cc1c[nH]cn1)NC(=O)[C@@H](NC(=O)[C@H](CCCCN)NC(=O)[C@H](CCC(N)=O)NC(=O)[C@H](Cc1ccccc1)NC(=O)[C@@H](NC(=O)[C@H](CCCCN)NC(=O)[C@H](CCCCN)NC(=O)[C@H](CC(C)C)NC(=O)[C@H](C)NC(=O)[C@H](CC(N)=O)NC(=O)[C@@H](N)CC(C)C)C(C)C)[C@@H](C)CC)[C@@H](C)CC)C(N)=O [Pse-T4] | 0 | 0 | 0 | 0 | 0 | 1.3% | 100 | 100 | 100 | 100 | 100 | 96.5 | showed binding to DNA | higher membrane disrupting ability than Pseudin-2 | higher membrane disrupting ability than Pseudin-2 | 
CC[C@H](C)[C@H](NC(=O)[C@H](CC(C)C)NC(=O)[C@H](CCCCN)NC(=O)[C@@H](NC(=O)[C@H](C)NC(=O)[C@H](CCC(=O)O)NC(=O)[C@H](Cc1c[nH]cn1)NC(=O)[C@@H](NC(=O)[C@H](CCCCN)NC(=O)[C@H](CCC(N)=O)NC(=O)[C@H](Cc1ccccc1)NC(=O)[C@@H](NC(=O)[C@H](CCCCN)NC(=O)[C@H](CCCCN)NC(=O)[C@H](CC(C)C)NC(=O)[C@H](C)NC(=O)[C@H](CC(N)=O)NC(=O)[C@@H](N)CC(C)C)C(C)C)[C@@H](C)CC)[C@@H](C)CC)C(N)=O [Pse-T2] | 0 | 0 | 0 | 0 | 4.7 | 15.2% | 100 | 100 | 100 | 100 | 95.3 | 79.4 | showed binding to DNA | higher membrane disrupting ability than Pseudin-2 | higher membrane disrupting ability than Pseudin-2 | mRNA expression of IL-6 [5]: suppressed; Membrane damage by SEM (Staphylococcus aureus [6]): higher damage and disruption of cell membrane; Membrane damage by SEM (Escherichia coli [7]): rougher than the cells treated with Pseudin-2; Bacteria count of Pseudomonas aeruginosa 4891 in lesion, less than the PBS treatment ([8]; on Day 3, homogenate of lesion tissues): at least 80%; Bacteria count of Pseudomonas aeruginosa 4891 in lesion, less than the PBS treatment ([8]; on Day 6, homogenate of lesion tissues): at least 95%; mRNA expression of TNF-α [9]: suppressed; Membrane disrupting ability (Staphylococcus aureus [3]; 1 hour at 37° C., PI staining): 96%; Membrane disrupting ability (Escherichia coli [4]; 1 hour at 37° C., PI staining): 92%; mRNA expression of IL-1β [10]: suppressed
